The campaign covered roughly 94,000 compounds. About 6,200 (6.6%) were called active. Inconclusive results, whose numbers are uncertain, are shown with a selection of clear calls. Calls come from the whole dose curve; as a rule, active = well fitted inhibition curve with a large enough effect; inconclusive = small, poorly fitted or top-dose-only effect; inactive = flat fitted curve, though single readings scatter. A potency beside an inconclusive call is a rough fit, not a confirmed value.
Assay: Cytotoxic Profiling in HEK 293 Cell Line of Diverse Libraries Using Quantitative High-Throughput Screening; note: nearly all actives have a fitted effect of over 60% in size
Conditions: HEK 293 viability, ATP luminescence (CellTiter-Glo), 48-72 h; series mostly up to 115 µM
How it was run: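 Luminescence from cellular ATP, measured with CellTiter-Glo, indicates HEK 293 viability. Cells plated at 250 cells/well are treated with compound for 48 or 72 hr at 37 degree Celsius before reagent addition.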
Potency is the fitted concentration of half-maximal effect; tags give direction and shape of the fitted curve.

SMILES	Potency
Cc1ccc([S+](=O)([O-])N2CCC(N3C(=O)c4c(c(C)nn4-c4ccccc4)C3C(C)C)C2)cc1 (centres undefined)	inconclusive: 22.4 µM [inhibitor, full curve, poor fit]
CCCN(C)c1nccnc1OC1CCN(C(=O)C2CCC2)C1 (centres undefined)	inconclusive: 56.2 µM [inhibitor, partial curve, poor fit]
COCCN1CCOc2nc(-c3cc(F)ccc3OC)ncc2C1=O	inconclusive: 126 µM [inhibitor, partial curve, poor fit]
COc1ccccc1Nc1cnc2ccc(N(C)Cc3cccnc3)nn12	inconclusive: 39.8 µM [inhibitor, partial curve, poor fit]
O=C(c1cc(F)ccc1F)N1CCCC(Cc2noc(-c3ccccc3)n2)C1 (centres undefined)	inconclusive: 50.1 µM [inhibitor, partial curve, poor fit]
CCc1ccc(N2CC(c3noc(-c4ccc5ncccc5c4)n3)CC2=O)cc1 (centres undefined)	inconclusive: 89.1 µM [inhibitor, single point]
COc1ccc(C)cc1NC(=O)CN1C(=O)NC(c2ccccc2Cl)C2=C1COC2=O (centres undefined)	inactive
Cc1onc(-c2ccccc2Cl)c1-c1nc(C2CCOC2)no1 (centres undefined)	inactive
CC(C)c1nc(CCNC(=O)[C@H]2CNC[C@@H](C(=O)N3CCCC3)C2)cs1	inactive
CN(C)CCNC(=O)C(C)(C)Oc1nn(CCOc2ccccc2)c2ccccc12	active: 89.1 µM
COc1ccccc1-c1cccc(C(=O)N2CCN([S+](=O)([O-])c3ccc(C)cc3)CC2)c1	inconclusive: 22.4 µM [inhibitor, full curve]
COc1ccc(C2Cn3nnc(-c4noc(C5CCCC5)n4)c3CO2)cc1 (centres undefined)	inactive
O=C1[C@H]2CN(Cc3ccccc3F)C[C@H]2C(=O)N1CCN1CCc2ccccc2C1	inconclusive: 89.1 µM [inhibitor, single point]
COc1ccc2nc([C@H]3CCN(C4CCCCC4)C3)[nH]c2c1	inconclusive: 112 µM [inhibitor, single point]
Cc1nnc2ccc(N3CCN(C(=O)c4ccc(F)cc4)CC3)nn12	inactive
O=C(NCc1cccc(Cl)c1)c1ccc2nccn2c1	inconclusive: 63.1 µM [inhibitor, full curve]
COCCCn1c(=O)c(C(=O)NCc2ccc3c(c2)OCO3)nc2cccnc21	inactive
c1ccc2c(Cc3nnc([C@H]4CCN(C5CCCCC5)C4)o3)c[nH]c2c1	inconclusive: 112 µM [inhibitor, single point]
COCCOC1CN(C2CCN(C(=O)COc3ccc(F)cc3)CC2)C12CCCCC2 (centres undefined)	inactive
Cc1cccc(CC(=O)N2C[C@@H](CN3CCCN(C)CC3)[C@@H](CO)C2)c1	inactive
Cc1ccc(C(=O)Nc2ccc3ncnc(N4CCCC4)c3c2)s1	inactive
O=C(NCCCc1ccccc1)C1CN(c2ccccc2)C(=O)N1 (centres undefined)	inactive
COc1ccc(Nc2cnc3ccc(-c4ccc(F)cc4)nn23)cn1	active: 50.1 µM

SMILES	Potency
Fc1ccc(CN2CCNc3cnc(-c4ccccc4)cc3C2)cc1F	inconclusive: 79.4 µM [inhibitor, partial curve, poor fit]
O=[S+]([O-])(NC1CCN(c2ccc3nnc(C4CC4)n3n2)CC1)c1ccccc1	inconclusive: 50.1 µM [inhibitor, partial curve, poor fit]
O[C@H]1[C@H](NCC2CCCCC2)[C@H]2CO[C@H](O2)[C@@H]1N1CCC(Cc2ccccc2)CC1	active: 39.8 µM
CC(C)Cn1c(=O)c(C(=O)NCc2ccccc2F)nc2cccnc21	inconclusive: 79.4 µM [inhibitor, partial curve]
CN1CC2(CCN(C(=O)Cc3c[nH]c4ccccc34)CC2)CC1C(=O)N1CCOCC1 (centres undefined)	inactive
Cc1ccc(C(=O)N2CCCN(c3ccnc4ccnn34)CC2)cc1	inconclusive: 89.1 µM [inhibitor, single point]
CCCN(Cc1nccn1C)C(=O)CC1C(=O)NCCN1CC1CCCCC1 (centres undefined)	inactive
Cn1ncc2c(C(=O)NCc3cccs3)cc(-c3ccc(Cl)cc3)nc21	inconclusive: 35.5 µM [inhibitor, partial curve]
Cc1nc(C)c(C(=O)N2CCC(Oc3ccccc3-c3nc(-c4ccccc4)no3)C2)s1 (centres undefined)	active: 28.2 µM
COCCNC(=O)c1cc(-c2cccc(OC)c2)nc2c1cnn2C	inconclusive: 126 µM [inhibitor, partial curve, poor fit]
O=C1Cc2c(-c3ccccc3)n[nH]c2CN1CCOc1ccccc1	inactive
Cn1nc(C2CCCC2)cc1NC(=O)c1ccccc1F	inconclusive: 100 µM [inhibitor, partial curve, poor fit]
CN(C)C(=O)c1cccnc1OC1CCN(C(=O)c2ccccc2)C1 (centres undefined)	inactive
CC1(c2ccccc2)N(Cc2ccccc2)C(=O)OC12CCN(c1cccnc1)CC2 (centres undefined)	active: 70.8 µM
Cc1cc(C(=O)N2CCN(C(=O)N3CC4CC(C3)[C@H]3CCCC(=O)N3C4)CC2)n(C)n1 (some centres undefined)	inactive
CC(=O)N[C@H]1CN(C2CCN(c3ccc(F)cc3C)CC2)C[C@@H]1C1CC1	inconclusive: 56.2 µM [inhibitor, partial curve, poor fit]
CN(C)C(=O)c1nc(-c2cccc(C(F)(F)F)c2)c2ccccn12	inconclusive: 89.1 µM [inhibitor, partial curve]
CCC1(N2CCN(S(=O)(=O)c3ccc(F)c(C)c3)CC2)CCN(C(=O)NC)C1 (centres undefined)	inactive
O=C(NC1CCCC1)c1cc(-c2cccc(C(F)(F)F)c2)c2cccn2n1	active: 39.8 µM
O=C(NCCc1ccccc1)C1CCCN(Cc2cccc(-c3ccc(F)cc3F)c2)C1 (centres undefined)	active: 39.8 µM
CCC(=O)N1CCC(O)(c2ccccc2)[C@H](N(C)C)C1 (some centres undefined)	inactive
CCn1ncc(N2CCCC(CC(=O)NCc3cccc(C)c3)C2)cc1=O (centres undefined)	inactive
Cc1ccc(OCCC2CCN(C(=O)CCn3nc(C)cc3C)C2)cc1 (centres undefined)	active: 50.1 µM

SMILES	Potency
Cc1cc(=O)n(CC(=O)Nc2cc(Cl)ccc2C)c(N(C)Cc2ccccc2)n1	active: 25.1 µM
O=C(NCCCc1ccccc1)C1CCCCN1Cc1ccc(-c2ccsc2)cc1 (centres undefined)	inconclusive: 50.1 µM [inhibitor, partial curve, poor fit]
O=C(N1CCOc2ccc(CN3CCc4ccccc4C3)cc2C1)C1(c2ccccc2)CC1	active: 44.7 µM
Cc1noc(-c2cn(C3CCN(C(=O)c4ccc5c(c4)OCO5)CC3)nn2)n1	inactive
FC(F)(F)c1ccc(N2C3CCC2CN(Cc2cccc(-c4cccnc4)c2)C3)cc1	inconclusive: 10 µM [inhibitor, partial curve, poor fit]
O=C(C[C@@H]1CCNC[C@@H]1Cc1cc(-c2ccccc2)on1)N1CCCCC1	inconclusive: 112 µM [inhibitor, partial curve, poor fit]
COc1cc2c(cc1CN1CCN(c3ccc(C#N)cc3)C(=O)C1)CCC2	inactive
COc1ccc(-c2nc(-c3ccccc3)nc3c2CN(C(=O)c2cccc(OC)c2)CC3)cc1	inconclusive: 28.2 µM [inhibitor, full curve]
COc1ccccc1-n1c(=O)c(C(=O)NCC(F)(F)F)nc2cccnc21	inactive
c1ccc(-c2cc3c(cn2)NCCN(Cc2ccsc2)C3)cc1	inconclusive: 100 µM [inhibitor, partial curve]
CC(C)OCCCNC(=O)c1ccc(N2CC3CC(C2)[C@H]2CCCC(=O)N2C3)nc1 (some centres undefined)	inactive
O=C(CNC(=O)c1ccc(-c2cnc3ccccc3c2)cc1)NCc1cccc(C(F)(F)F)c1	inconclusive: 39.8 µM [inhibitor, full curve, poor fit]
CC1CCC2(CC1)OCC(C(=O)NCC1CC1)N2C(=O)c1ccc(F)cc1 (centres undefined)	inconclusive: 28.2 µM [inhibitor, partial curve, poor fit]
O=C(c1cccs1)N1CC(Oc2ccc(-c3nc(-c4ccccc4)no3)cc2)C1	inconclusive: 25.1 µM [inhibitor, full curve, poor fit]
CN(CCO)C[C@@H]1CN(C(=O)c2ccc3c(c2)CCC3)C[C@@H]1CO	inactive
COc1ccc(-c2cc(N3CCC(NC(=O)Cc4ccccc4F)CC3)n[nH]2)cc1	inconclusive: 50.1 µM [inhibitor, partial curve, poor fit]
COc1cccc(-c2cn3c(n2)N(C(=O)c2ccco2)CCC3)c1	inconclusive: 44.7 µM [inhibitor, partial curve, poor fit]
Cc1cn2nc(C(=O)Nc3ccc(F)c(C)c3)cc2c(N2CCSCC2)n1	inconclusive: 35.5 µM [inhibitor, partial curve]
COc1ccc(Nc2cnc3ccc(-c4ccc(F)cc4)nn23)cc1OC	inconclusive: 70.8 µM [inhibitor, partial curve, poor fit]
Cc1ccc2c(C)c(C(=O)N(C)CCOc3ccccc3)oc2c1C	inconclusive: 56.2 µM [inhibitor, partial curve, poor fit]
N#Cc1ccc(CN2CCCC3(CN[S+](=O)([O-])c4ccccc4N3)C2)cc1 (centres undefined)	inconclusive: 89.1 µM [inhibitor, partial curve, poor fit]
CCCn1ccc2oc(C)c(C(=O)NCc3ccccc3Br)c2c1=O	inconclusive: 50.1 µM [inhibitor, partial curve, poor fit]
O=C(Nc1ccccc1)c1nc2c(o1)CCN(Cc1ccc(O)cc1)CC2	inconclusive: 100 µM [inhibitor, partial curve]
